Results published in the RNAGym collection of RNA variant scans (doi:10.7554/elife.90254).
The source gives no read counts; variants with many changes may rest on few reads.

B1: LINE1-full (parent)
chain: UACGUAGGUGGUUUUCCCCUGAUAGUGCUAAGGGGGCCUGGAAGUUUGGACUGGGCAGAGCUCAACACAGCGUGGCAAAGUGGCUGUGGCUAGACUGCCUCUCUGGAUUCCUCGUCACUCAGCAGGGCAUCUCUGAGAGAAAUGCC

Variants of: B1
Experiment: self-cleavage, relative activity (ratio to wild type); higher = more cleavage; in vitro, sequencing; the parent is a self-cleaving ribozyme
For UACGUAGGUGGUUUUCCCCUGAUAGUGCUAAGGGGGCCUGGAAGUUUGGACUGGGCAGGGCUCAACACAGCGUGGCAAAGUGGCUGUGGCUAGACUGCCUCUCUGGAUACCUCGUCACUCAGCAGGGCAUCUCUGAGAGAAGUGCC, the self-cleavage was 0.16.
For UACGUAGGUGGUUUUCCCCUGGUAGUGCUAAGGGGGCCCGGAAGUAUGGACUGGGCAGAGCUCAACACAGCGUGGCAAAGUAGCUGUGGCUAGACUGCCUCUCUGGAUUCCUCGUCACUCAGCAGGGCAUCUCUGAGAGAAAUGCC, the self-cleavage was 1.55.
Work on CACGUAGGUGGUUUUCCCCUGAUAGUGCUAAGGGGGCCUGGAAGUUUGGACUGGGCAGAGCUCAACACAGCGUGGCAAGGUGGCUGUGGCUAGACUGCCUCUCUGGGUUCCCCGUCACUCAGCAGGGCAUCUCUGAGAGAAAUGCC yielded a self-cleavage of 0.92.
UACGUAGGUGGUUUUCCCCAGAUAGUGCUAAGGGGGCCUGGAAGUUUGGACUGGGCAGAGCUCAACACAGCGUGGCAAAGGGGCUGUGGCUAGACUGCCUCUCUGGAUUCCUCGUCACUCAGCAGGGCAUCUCUGUGAGAAAUGCC showed a self-cleavage of 1.
For UACGUAGGUGGUUUUCCCCUGAUAGUGCUAAGGGGGCCUGGUAGUUUGGACUGGGCAGAGCUCAACACAGCGUGGCAAAGAGGCUGUGGCUAGACUGCCUCUCUGGAUUCCUCGUCACUCAGCAGGGCAUCUCUGAGAGAAGUGCC, the self-cleavage was 1.21.
Work on UACGUAGGUGGGUUUCCCCUGAUAGUGCUAAGGGGGCCCGGAAGUUUGGACUGGGCAGAGCUCAACACAGCGAGGCAAAGUGGCUGUGGCUAGACUGCCUCUCUGGAUUCCUCGUCACUCAGCAGGGCAUCUCUGAGAGAAAUGCC yielded a self-cleavage of 1.01.
In the case of UACGUAGGUGGUUUUCCCCUGAUAGUGCUAAGGGGGCCUGGAAGUUUGGACUGGGCAGAGCUCAACACAGCGUGGCAAAGUGGCUGUGGCUAGACUACCUCUCUGGAUUCCUCGUCACUCAGCAGUGCAUCCCUGGGAGAAAUGCC, the self-cleavage is reported as 0.35.
In the case of UACGUAGGUGGUUCUCCCCUGAUAGUGCUAAGGGGGCCUGGAAGUUUGGAUUGGGCAGAGCUCAACACAGCGUGGCAAAGUGGCUGUAGCUAGACUGCCUCUCUGGAUUCCUCGUCACUCAGCAGGGCAUCUCUGAGGGAAAUGCC, the self-cleavage is reported as 0.06.
With UACGUAGGUGGCUUUCCCCUGAUAGUGCUAAGGGGGCCUGGGAGUUUGGACUGGGCAGAGCUCAACACAGCGUGGCAAAGUGGCUGUGGCUAGACUGCCUCUCUGGAUUCCUCGUCACUCAGCAGGGCAUCUCUGAGAGAAGUGCC the self-cleavage was 1.8.
Work on UACGUAGGAGGUUUUCCCCUGAUAGUGCUAAGGGGGCCUGGAAGUUCGGACAGGGCAGAGCUCAGCACAGCGCGGCAAAGUGGCUGAGGCUAGACUGCCUCUCUGGAUUCCUCGUCACUCAGCAGGGCAUCUCUGAGAGAAAUGCC yielded a self-cleavage of 0.
Variant UACGUAGGUGGUUUCCCCCUGAUAGUGCUAAGGGGGCCUGGAAGUUUGGACUGGGCUGAGCUCAACACAGCGUGGCAAAGUGGCUGUGGCUAGACUGCCUCUCUGGGUUCCUCGUCACUCAGCAGGGCAUCUCUGAGAGAAAUGCC has a self-cleavage of 0.13.
With UACGUAGGUGGUCUUCCCCUGAUAGUGCUAAGGGGGCCUGGAAGUUUGGACUGGGCAGAGCUCAACACAGCGUGGCAAAGUGGCUGUGGCUAGACUGCCUCUCUGGAUUCCUCGUCACUCUGCAGGGCAUCUCCGAGAGAAAUGCC the self-cleavage was 1.53.
With UACGUAGGUGGUUUUCCCCUGAUAGUGCUAAGGGGGCCAGGAAGUUUGGACUGGGCAGAGCUCAACACAGCGUGGCAAAGUGGCUGUGGCUAGACUGCCUCUCUGGAUUCCUCGUCUCUCAGCAGGGCACCUCUGAGAGAAAUGCC the self-cleavage was 0.84.
With UACGUAGGUGGUUUUCCCCUGAUAGUGCUAAGGGGGCCAGGAAGUUUGGACUGGGCAGAGCUCAACACAGCGUGGCAAAGUGGCUGUGGCUAGACUGCCUCUCUGGACUCCUCGUCACUCAGCAGGGCAUCUCCGAGAGAAAUGCC the self-cleavage was 1.08.
Work on UACGUAGGAGGUUUUCCCCUGAUAGUGCCAAGGGGGCCUGGAAGUUUGGACUGGGCAGAGCUCAACACAGCGUGGCAAAGUGGCUGUGGCUAGACUGCCUCUCUGGAUUACUCGUCACUCAGCAGGGCAUCUCUGAGAGAAAUGCC yielded a self-cleavage of 0.82.
Work on UACGUAGGUGCUUUUCCCCUGAUAGUGCUAAGGGGGCCUGGAAGUUUGGACUGGGCAGAGCUCGGCACAGCGUGGCAAAGUGGCUGUGGCUAGACUGCCUCUCUGGAUUCCUCGUCACUCAGCAGGGCAUCUCAGAGAGAAAUGCC yielded a self-cleavage of 0.
Work on UACGUAGGCGGUUUUCCCCUGAUAGUGCUAAGGGGGCCUGGAAGUCUGGACUGGGCAGAGCUCAACACAGCGUGGCAAAGUGGCUGUGGCUAGGCUGCCUCUCUGGAUUCCUCGUCACUCAGCGGGGCAUCUCUGAGAGAAAUGCC yielded a self-cleavage of 1.15.
With UACGUAGGCGGUUUUCCCCUGAUAGUGCUAAGGGGGCCUGGAAGUUUGGACUGGGCAGAGCUCAACACAGCGUGGCGAAGUGGCUGUGGCUAGACUGCCUCUCUGGAUUCCUCGUCACUCAGCAGGGCGUCUCUGAGAGAAAUGCC the self-cleavage was 1.41.
UACGUAGGUGGUUUUCCCCUGAUAGUGCUAAGGGGGCCUGGAAGCUAGGACUGGGCAGAGCUCAACGCAGCGUGGCAAGGUGGCUGUGGCUAGACUGCCUCCCUGGAUUCCUCGUCACUCAGCAGGGCAUCUCUGAGAGAAAUGCC gave a self-cleavage of 0.
